These results are taken from the supplement of paper PMC8821664.

Counter-ions that a name gives are not always drawn. This is one part of the list. Most values come without repeats; read them as rough.
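Also: monoclonal Beas-2B line stably carrying CMV promoter-driven AQP5-HiBiT, 5,000 cells per well in 384-well plates, lytic HiBiT plus LgBiT NanoLuc luminescence, FDA-approved drug library screen.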

For the test, the system named is Beas-2B AQP5-HiBiT reporter cells. Kind of test: AQP5-HiBiT luminescence relative to vehicle (ratio to vehicle); higher = higher AQP5-HiBiT protein abundance. The note with it: 10 µM; 18 h. For orientation: With HiBiT, luminescence reflects the tagged protein that the partner subunit can reach.
`Cn1cnc([N+](=O)[O-])c1Sc1ncnc2[nH]cnc12` [Azathioprine]: the AQP5-HiBiT luminescence was 0.796. In the case of `COc1cc(NC(C)CCCN)c2ncccc2c1` (centres undefined) [Primaquine diphosphate], the AQP5-HiBiT luminescence was determined as 0.908. `Clc1ccc(CO/N=C(\Cn2ccnc2)c2ccc(Cl)cc2Cl)c(Cl)c1` [Oxiconazole nitrate]: the AQP5-HiBiT luminescence came to 0.802. The same measure for `COCCc1ccc(OCC(O)CNC(C)C)cc1` (centres undefined) [Metoprolol Succinate (ToprolX)]: 1.96; for `CC(C)(C)c1nc(-c2cccc(NS(=O)(=O)c3c(F)cccc3F)c2F)c(-c2ccnc(N)n2)s1`: 0.435. Consider `CN1CCC(=C2c3ccccc3CC(=O)c3sccc32)CC1` [Ketotifen fumarate], for which the AQP5-HiBiT luminescence turned out to be 0.85. Consider `CC(=O)O[C@H]1Cc2ccccc2N(C(N)=O)c2ccccc21` [Eslicarbazepine Acetate], for which the AQP5-HiBiT luminescence was determined as 0.838. Regarding `Cc1cc(C2CCCCC2)n(O)c(=O)c1` [Ciclopirox ethanolamine], the AQP5-HiBiT luminescence was determined as 2.31. The same measure for `CC1(C)S[C@@H]2[C@H](NC(=O)[C@H](N)c3ccccc3)C(=O)N2[C@H]1C(=O)O` [Ampicillin]: 0.854. As for `CC1=C(/C=C/C(C)=C/C=C/C(C)=C/C(=O)O)C(C)(C)CCC1` [Tretinoin], the AQP5-HiBiT luminescence stood at 0.923.

`NC(CO)(CO)CO` [Trometamol]: the AQP5-HiBiT luminescence turned out to be 1.08. As to `CO[C@@]1(NC(=O)Cc2cccs2)C(=O)N2C(C(=O)O)=C(COC(N)=O)CS[C@@H]21` [Cefoxitin sodium], the AQP5-HiBiT luminescence was 0.97.

Regarding `NC(=O)Cc1cccc(C(=O)c2ccccc2)c1N` [Nepafenac], the AQP5-HiBiT luminescence turned out to be 0.997. In the case of `CC1(C)O[C@@H]2C[C@H]3[C@@H]4CCC5=CC(=O)C=C[C@]5(C)[C@H]4[C@@H](O)C[C@]3(C)[C@]2(C(=O)CO)O1` [Desonide] it was 0.935.
